Measurements reported in PubChem BioAssay AID1030 (National Center for Advancing Translational Sciences (NCATS), 2008).
About 16,000 (7.3%) of roughly 220,000 compounds were called active. The shares of active, inactive and inconclusive entries below differ from those in the screen. Calls follow the shape of the dose curve; as a rule, active = well fitted inhibition curve with a large enough effect (not every such curve was filed as active); inconclusive = small, poorly fitted or top-dose-only effect, or another doubt; inactive = no such curve, though single readings can be large or run the other way. Potencies of inconclusive entries are left out as doubtful fits.
Potency is read from the fitted curve at half-maximal effect; tags tell the direction and shape of the fitted curve.

The compounds below were run against Aldehyde dehydrogenase 1A1 (Homo sapiens) (UniProt P00352) (assay: qHTS Assay for Inhibitors of Aldehyde Dehydrogenase 1 (ALDH1A1)). Settings: Purified ALDH1A1, NADH fluorescence, propionaldehyde substrate; series mostly up to 75.3 µM.
Sequence of UniProt P00352 (P00352 whole entry, looked up): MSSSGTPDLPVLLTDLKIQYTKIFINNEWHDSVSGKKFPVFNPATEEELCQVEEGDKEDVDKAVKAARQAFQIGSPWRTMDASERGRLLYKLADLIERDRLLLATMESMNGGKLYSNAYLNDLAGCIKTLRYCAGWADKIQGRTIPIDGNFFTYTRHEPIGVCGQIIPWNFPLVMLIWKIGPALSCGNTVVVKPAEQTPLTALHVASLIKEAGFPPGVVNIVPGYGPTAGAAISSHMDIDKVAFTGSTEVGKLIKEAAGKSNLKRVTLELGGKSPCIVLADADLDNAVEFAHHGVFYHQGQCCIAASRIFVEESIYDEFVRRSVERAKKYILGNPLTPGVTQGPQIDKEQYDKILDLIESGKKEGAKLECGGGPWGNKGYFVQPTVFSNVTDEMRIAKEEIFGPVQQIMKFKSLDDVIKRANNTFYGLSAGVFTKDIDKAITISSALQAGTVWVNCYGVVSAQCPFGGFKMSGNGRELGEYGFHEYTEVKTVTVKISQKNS
For `CC1CCN(C(=S)c2ccc(O)cc2)CC1`, the Potency was inconclusive [inhibitor, single point].
In the case of `CC(C)(C)c1ccc(NC(=O)N2CCCN(c3ccc([N+](=O)[O-])cn3)CC2)cc1`, the Potency was active: 15.8 µM.
With `Cc1c(CCCN)c2ccccc2n1Cc1ccccc1` the Potency was inconclusive [inhibitor, single point].
In the case of `O=C(O)c1[nH]nc2c1COc1ccccc1-2`, the Potency was inconclusive [inhibitor, single point].
With `CC(=O)N(C)c1nnc(-c2ccccn2)s1` the Potency was inconclusive [inhibitor, single point].
With `COc1ccc2c(c1)c(=O)oc1cc(OCC(=O)N3CCc4ccccc4C3)ccc12` the Potency was inconclusive [inhibitor, partial curve].
In the case of `CCOC(=O)N=Nc1c(O)n(C)c2ccccc12`, the Potency was inconclusive [inhibitor, partial curve].
With `O=C(NCc1nc2ccccc2[nH]1)C1=C[C@@H](c2ccccc2)C[C@@H](OCCCCO)O1` the Potency was inconclusive [inhibitor, single point].
`Cn1c(/C(C#N)=C/c2cccc(O)c2)nc2ccccc21` was tested, and the Potency was inconclusive [inhibitor, single point].
`COCC(=O)N1CCC2(CCCN(C(=O)Nc3ccc(OC)cc3)C2)CC1` was tested, and the Potency was “inactive”.
With `Cc1ccc(C(C)C)c(OCC(=O)N/N=C/C2CCCCC2)c1` the Potency was inconclusive [inhibitor, partial curve, poor fit].
`CCOc1cc(C2C(C(=O)N3CCCCC3)=C(C)NC3=C2C(=O)CCC3)cc(Br)c1O` (stereo unspecified) was tested, and the Potency was inconclusive [inhibitor, partial curve].
`COc1ccc(OC)c(NC(=O)NNC(=O)CCCOc2ccc(Cl)cc2C)c1` was tested, and the Potency was “inactive”.
For `O=C(c1ccccc1F)N1C(=O)c2cccc3cccc1c23`, the Potency was inconclusive [inhibitor, partial curve].
In the case of `Cc1nn(CC(=O)OCC(=O)Nc2ccccc2[N+](=O)[O-])c(C)c1[N+](=O)[O-]`, the Potency was “inactive”.
With `O=C(NCc1ccc2c(c1)OCO2)c1ccc(N2C(=O)C3CCCCC3C2=O)cc1` (stereo unspecified) the Potency was inconclusive [inhibitor, single point].
In the case of `Cc1nn(-c2ccccn2)c2nc(-c3cccs3)cc(C(=O)NCc3ccco3)c12`, the Potency was inconclusive [inhibitor, partial curve].
For `CCCOc1ccc(C2C(=O)N(C3CCCCCC3)CC(=O)N2Cc2ccco2)cc1OC` (stereo unspecified), the Potency was “inactive”.
With `COCCNC(=O)COc1cccc2c1OC(C)(C)C2` the Potency was “inactive”.
With `COc1cccc(OCc2nnc(SCC(=O)NCc3ccco3)n2CCc2ccccc2)c1` the Potency was active: 22.4 µM.
`CCN1CCN(C(=S)c2ccc([N+](=O)[O-])cc2)CC1` was tested, and the Potency was inconclusive [inhibitor, single point].
In the case of `CC12COC3(C(=O)Nc4ccc5ccccc5c4)CC1CCC32C` (stereo unspecified), the Potency was “inactive”.
In the case of `COc1ccc(-n2cc(-c3ccccc3)c3c(N4CC(C)OC(C)C4)ncnc32)cc1` (stereo unspecified), the Potency was inconclusive [inhibitor, single point].
For `COc1cccc(NC(=O)Nc2cccn(Cc3ccccc3)c2=O)c1`, the Potency was inconclusive [inhibitor, single point].
`O=C(Nc1nccs1)c1ccc(S(=O)(=O)N2CCOCC2)cc1` was tested, and the Potency was inconclusive [inhibitor, partial curve].
For `CNc1ccccc(C(=O)/C=C/c2ccccc2OC)c1=O`, the Potency was active: 10 µM.
For `Cc1ccc(S(=O)(=O)N2CCc3ccccc3C2CN2C(=O)c3ccccc3C2=O)cc1` (stereo unspecified), the Potency was inconclusive [inhibitor, single point].
For `CC1=C(C(=O)OC(C)C)C(c2cccc([N+](=O)[O-])c2)n2c(cc(=O)[nH]c2=S)N1` (stereo unspecified), the Potency was “inactive”.
In the case of `COCCNC(=O)c1ccc(C)cc1C`, the Potency was “inactive”.
With `FC(F)(F)c1cc(-c2ccco2)nc(-n2cnc3ccccc32)n1` the Potency was “inactive”.
With `Cn1c(C(=O)NCc2ccccc2)cc2oc3ccccc3c21` the Potency was inconclusive [inhibitor, single point].
For `O=C(CCC(=O)Nc1ccc(Br)cc1)N/N=C/c1cc([N+](=O)[O-])ccc1O`, the Potency was “inactive”.
For `COc1ccc(NC(=S)NCC2CCN(c3ccc(OC)cc3)C2)cc1` (stereo unspecified), the Potency was active: 35.5 µM.
In the case of `CC1(C)Cc2nc(N)c(=O)sc2C1`, the Potency was inconclusive [inhibitor, single point].
With `CC(NC(=O)CSc1nc2sc3c(c2c(=O)n1-c1ccccc1)CCCC3)c1ccccc1` (stereo unspecified) the Potency was inconclusive [inhibitor, single point].
`CCCOC(=S)NC(=O)c1sc2ccccc2c1Cl` was tested, and the Potency was active: 5.62 µM.
In the case of `O=C(NCc1ccco1)c1cnn2c1NC(c1ccc(Br)cc1)CC2C(F)(F)F` (stereo unspecified), the Potency was “inactive”.
For `O=C(NN=C1CCCCC1)c1ccccc1OCc1ccc(F)cc1`, the Potency was inconclusive [inhibitor, partial curve].
`COc1cc(S(=O)(=O)N2CCOCC2)ccc1F` was tested, and the Potency was “inactive”.
With `COC(=O)c1oc2c(c1C)C(=O)CC(C)(C)C2` the Potency was inconclusive [inhibitor, single point].
For `CC1CC(C)CN(C(=O)c2ccccc2Nc2ccc(SC(F)F)cc2)C1` (stereo unspecified), the Potency was “inactive”.
For `O=C(CN1CCN(c2ncccn2)CC1)N1CCc2ccccc21`, the Potency was inconclusive [inhibitor, single point].
For `CCn1c(=NC(=O)CSC(C)=O)sc2cc(OC)ccc21`, the Potency was inconclusive [inhibitor, partial curve].
In the case of `Cn1cc([C@@H]2C[C@H]3CN(Cc4cccc(Cl)c4)C(=O)[C@]34CCCN24)c(-c2ccccc2)n1`, the Potency was “inactive”.
In the case of `Cc1ccccc1C(=O)NC(=S)Nc1ccc(Cc2ccncc2)cc1`, the Potency was inconclusive [inhibitor, single point].
In the case of `COc1cc(C2NC(=S)NC(C)=C2C(=O)OC(C)C)ccc1OC(C)C` (stereo unspecified), the Potency was inconclusive [inhibitor, single point].
`O=C1c2cccc3cc(Br)cc(c23)C(=O)N1Nc1ccc(Br)cc1` was tested, and the Potency was “inactive”.
In the case of `COC(=O)C1Cc2c([nH]c3ccccc23)C(C)N1` (stereo unspecified), the Potency was “inactive”.
In the case of `N#Cc1c(-c2ccccc2Cl)cc(C2CC2)nc1N`, the Potency was “inactive”.
With `COc1ccc(CNC(=O)c2cc3c(C)nc4ccccc4c3o2)c(OC)c1` the Potency was “inactive”.
For `CCCC(=O)NC(c1ccc(OC)c(OC)c1)c1c(O)ccc2ccccc12` (stereo unspecified), the Potency was “inactive”.
`O=[N+]([O-])c1ccc(NC(=S)N/C(=N/CS(=O)(=O)c2ccccc2)c2ccccc2)cc1` was tested, and the Potency was active: 28.2 µM.
`O=C(/C(=C/c1ccccc1)c1ccccc1)N1CCCCC1` was tested, and the Potency was “inactive”.
In the case of `COc1cccc(CN2CCN(c3nc4nonc4nc3N3CCCCC3)CC2=O)c1`, the Potency was inconclusive [inhibitor, partial curve].
In the case of `COc1ccc(S(=O)(=O)Nc2cccc(N(C)S(C)(=O)=O)c2)cc1Br`, the Potency was inconclusive [inhibitor, single point].
With `CCOc1ccc(NC(=O)Nc2ccc(N(C)C(C)=O)cc2)cc1` the Potency was inconclusive [inhibitor, partial curve].
`CC(C)(C)c1ccc(OCc2ccc(C(=O)N/N=C/c3ccc([N+](=O)[O-])cc3)o2)cc1` was tested, and the Potency was “inactive”.
In the case of `CC(=O)Nc1ccc(NC(=O)COC(=O)c2c(C)nn(-c3ccccc3)c2C)cc1`, the Potency was active: 22.4 µM.
For `Cc1nn(-c2ccccc2)c2c1C(c1ccncc1)C(C#N)=C(N)O2` (stereo unspecified), the Potency was active: 14.1 µM.
For `Cc1cccc(N2CCN(C(=O)c3c(C)nn(Cc4ccccc4Cl)c3C)CC2)c1C`, the Potency was inconclusive [inhibitor, single point].
In the case of `CC(Oc1ccc(Cl)cc1Cl)c1ccnc2nc(N3CCOCC3)nn12` (stereo unspecified), the Potency was inconclusive [inhibitor, single point].
In the case of `CCC(C)N(C(=O)CSc1ccc(NC(C)=O)cc1)C1CCS(=O)(=O)C1` (stereo unspecified), the Potency was “inactive”.
`COc1ccc(-n2c(=S)[nH]c3cc(C(=O)NC4CCCCC4)ccc3c2=O)c(OC)c1` was tested, and the Potency was active: 0.1 µM.
For `COc1ccc(-c2nc(N)nc(C)c2Oc2ccccc2Br)c(O)c1`, the Potency was inconclusive [inhibitor, single point].
In the case of `O=C(CS(=O)(=O)c1ccccc1)Nc1nc(-c2ccccc2)cs1`, the Potency was inconclusive [inhibitor, single point].
For `Cc1ccc(NC2CC(=O)N(Cc3ccccc3)C2=O)cc1` (stereo unspecified), the Potency was inconclusive [inhibitor, single point].
For `CNS(=O)(=O)c1cccc2nsnc12`, the Potency was “inactive”.
With `O=S(=O)(Nc1cc(Sc2cccc3cccnc23)c(O)c2ccccc12)c1ccc(F)cc1` the Potency was active: 28.2 µM.
In the case of `COc1ccccc1CNCc1cccc(Oc2ccccc2)c1`, the Potency was inconclusive [inhibitor, single point].
With `O=C(NCC1CCCO1)c1ccc(OC2CCN(C(=O)C3CC3)CC2)cc1` (stereo unspecified) the Potency was “inactive”.
With `O=C1C(Cl)=C(N2CCOCC2)C(=O)N1CCc1ccccc1` the Potency was inconclusive [inhibitor, partial curve].
`N#CC(C(=O)NCc1ccccc1)c1nc2ccccc2nc1N1CCCC1` (stereo unspecified) was tested, and the Potency was inconclusive [inhibitor, single point].
With `CCOc1ccc(OCc2cccc(C(=O)N3CCCCCC3)c2)cc1` the Potency was active: 35.5 µM.
`O=[N+]([O-])c1ccccc1CN1CCN(Cc2ccccn2)CC1` was tested, and the Potency was inconclusive [inhibitor, single point].
`COc1ccc(-c2[nH]ncc2CN(C)Cc2c(C)n[nH]c2C)c(OC)c1` was tested, and the Potency was “inactive”.
In the case of `CCNc1nc(-c2cc3ccccc3o2)cs1`, the Potency was “inactive”.
